Test results taken from PubChem BioAssay AID1745853 (National Center for Advancing Translational Sciences (NCATS), 2022).
This is one part of the list. Shown are side measurements of this screen, not its main read-out; they come without a call.

Columns and labels:
Assay in all cases: Primary Screen for Target Class Profiling of Small Molecule Inhibitors of Methyltransferases
[1] = biological target: Glycine N-methyltransferase (Homo sapiens) (UniProt Q14749); conditions: purified enzyme, MTase-Glo SAH luminescence; measured here: GNMT inhibition; at 40 µM; stronger effect = lower value
Summary of the method: (§1)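 Each enzyme was reacted with SAM and its substrate, with compounds tested once at 40 uM; SAH formed was read by MTase-Glo luminescence.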

[2] = biological target: Guanidinoacetate N-methyltransferase (Homo sapiens) (UniProt Q14353); conditions: purified enzyme, MTase-Glo SAH luminescence; measured here: GAMT inhibition; at 40 µM; stronger effect = lower value
Summary of the method: as §1

[3] = biological target: Histamine N-methyltransferase (Homo sapiens) (UniProt P50135); conditions: purified enzyme, MTase-Glo SAH luminescence; measured here: HNMT inhibition; at 40 µM; stronger effect = lower value
Summary of the method: as §1

[4] = biological target: Nicotinamide N-methyltransferase (Homo sapiens) (UniProt P40261); conditions: purified enzyme, MTase-Glo SAH luminescence; measured here: NNMT inhibition; at 40 µM; stronger effect = lower value
Summary of the method: as §1

[5] = biological target: Phenylethanolamine N-methyltransferase (Homo sapiens) (UniProt P11086); conditions: purified enzyme, MTase-Glo SAH luminescence; measured here: PNMT inhibition; at 40 µM; stronger effect = lower value
Summary of the method: as §1
% is set by controls: 0 for no effect and ±100 for the full control effect.

| Structure (SMILES) | activity change, negative = inhibition [1] | activity change, negative = inhibition [2] | activity change, negative = inhibition [3] | activity change, negative = inhibition [4] | activity change, negative = inhibition [5] |
| --- | --- | --- | --- | --- | --- |
| Cc1ccc(C)c(CSc2nnc3n(CCCOC(C)C)c(=O)c4ccccc4n23)c1 | 1.29% | 0% | 4.21% | 2.23% | 6.5% |
| O=C(c1ccc(OCCCc2cnc[nH]2)cc1)C1CC1 | 2.69% | 10.5% | -1.79% | -18.7% | -0.669% |
| CCc1cc2c(cc3n2CC(C)(C(=O)NC2CCCCCC2)N(CCC(C)C)C3=O)s1 (stereo unspecified) | 3.93% | 0% | 9.79% | 8.88% | 2.08% |
| COc1ccccc1CNC(=O)CCc1nnc2n(CC(C)C)c(=O)c3ccccc3n12 | -9.22% | -0.127% | -0.433% | -4.08% | -6.96% |
| CCn1c(=O)[nH]c2ccc3c(c21)C(=O)c1ccccc1C3=O | -4.08% | -8.5% | -10.2% | -8.26% | -16.8% |
| CCCn1c(=O)c2cc(F)ccc2n2c(SCC(=O)NCc3ccc(C)cc3)nnc12 | -0.637% | 1.81% | 5.28% | -1.45% | 4.39% |
| Cc1nnc([C@@H]2CC(F)(F)CN2C(=O)c2nccc3ccccc23)o1 | -6.55% | -15.7% | -1.65% | -10.4% | -5.59% |
| Cc1ccccc1N1Cc2c(NCc3ccc(F)cc3)ncnc2N(C)CC1=O | -3.19% | -2.14% | -1.8% | -11% | -2.9% |
| Cn1c(=O)oc2cc(S(=O)(=O)N3CCCC(C(=O)N4CCC(Cc5nncn5-c5ccccc5)CC4)C3)ccc21 (stereo unspecified) | -1.03% | 0.008% | 5.38% | -10.8% | 3.22% |
| O=C(NCCO)c1cc(C(=O)NCCO)cc(C(=O)NCCO)c1 | – | 1.22% | – | -5.89% | 4.81% |
| CC1=CC(=O)C[C@H]2[C@@H]1CC[C@@H](C)[C@]21CO[C@H](c2ccoc2)C1=O | 0% | -2.95% | 0.477% | -14.8% | 1.8% |
| CCc1cc2c(cc3n2CC(C)(C(=O)NC2CCCCC2)N(Cc2ccccc2C)C3=O)s1 (stereo unspecified) | -1.64% | 3.7% | -2.33% | 9.8% | -0.89% |
| CCN1CCCC1CNC(=O)c1cc(S(N)(=O)=O)ccc1OC (stereo unspecified) | 4.22% | 12.3% | 7.68% | -2.54% | 4.22% |
| C=CC(C)(O)CC/C=C(\C)C(=O)OC1C(O)C(CO)OC(OC(=O)C23CCC(C)(C)CC2C2=CCC4C5(C)CCC(OC6OC(COC7OCC(OC(C)=O)C(O)C7OC7OC(COC(C)=O)C(O)C(O)C7O)C(O)C(O)C6O)C(C)(C)C5CCC4(C)C2(C)C(O)C3O)C1OC1OCC(OC2OCC(O)C(OC3OCC(O)C(O)C3O)C2O)C(O)C1O (stereo unspecified) | -2.49% | 5.57% | 0.255% | -5.66% | 5.43% |
| C=C1C2(C)CC3C4(C)OC(C5OC56C4=CC(=O)OC6(C)C)C3(C)C13C(=O)OC(C)C3(O)C2=O (stereo unspecified) | 3.25% | 7.61% | 10.5% | -8.1% | 4.26% |
| Cc1ccc(-c2n[nH]n3c2nc(=O)c2ccc(C(=O)NCCc4ccccc4)cc23)cc1 | -2.39% | 1.06% | 5.64% | 5.42% | 1.29% |
| COc1ccc2cc3n(c2c1)CC(C)(C(=O)NC1CCCC1)N(Cc1ccc(C)cc1)C3=O (stereo unspecified) | -4.28% | 4.25% | -3.94% | -9.91% | -4.67% |
| CN(C)c1ccc(CNC(=O)CCCn2ccc3cc(S(=O)(=O)N4CCCC4)ccc32)cc1 | 11% | 2.28% | 7.43% | 11.6% | 6.19% |
| N#Cc1cccc(CN2CCCC(CNS(=O)(=O)Cc3ccccc3)C2)c1 (stereo unspecified) | -6.08% | -1.43% | -3.32% | -3.38% | -9.08% |

| Structure (SMILES) | activity change, negative = inhibition [1] | activity change, negative = inhibition [2] | activity change, negative = inhibition [3] | activity change, negative = inhibition [4] | activity change, negative = inhibition [5] |
| --- | --- | --- | --- | --- | --- |
| COC(=O)c1ccc2c(=O)[nH]c3c(C(=O)NCCC(C)C)sc(=S)n3c2c1 | -16.4% | 0% | 10.6% | -17.9% | -6.03% |
| CC1CC(C)CN(C(=O)Cn2c(=O)oc3cc(S(=O)(=O)NC4CCCC4)ccc32)C1 (stereo unspecified) | -4.12% | 1.74% | -3.56% | 4.36% | -5.25% |
| Cc1ccc(-c2ccc(N)nc2)c2cccnc12 | -11.5% | -3.27% | -6.03% | -7.16% | -4.71% |
| COc1ccc(OC)c(S(=O)(=O)N2CCC3(CCC3OC)CC2)c1 (stereo unspecified) | 0.691% | 1.01% | 6.86% | -0.822% | 4.34% |
| Cc1ccc(CNC(=O)CCc2nc(C3CCCN3S(C)(=O)=O)no2)o1 (stereo unspecified) | -6.83% | -13.8% | -4.09% | -19.8% | -16.1% |
| COc1ccc(/C=C/C(N)=O)cc1OC | 3.81% | 4.32% | 10.1% | -9.89% | 3.9% |
| Cn1c(=O)n(C)c2cc(CNCCNC(=O)c3nonc3N)ccc21 | -7.61% | 0% | -1.41% | 1.91% | -2.55% |
| CN(CCc1cnn(C)c1)C(=O)c1coc(COc2cccc(C(F)(F)F)c2)n1 | -4.3% | -6.09% | -1.97% | -11.9% | -8.68% |
| COc1ccccc1C1CCN(Cc2cn(-c3ccccc3)nn2)CC1 | -9.62% | -9.06% | -21.7% | -24.5% | -21.1% |
| Cc1[nH]c(/C=C2\C(=O)Nc3cc(-c4ccccc4)ccc32)c(C)c1CCC(=O)O | -9.58% | 10.1% | -7.58% | -10.6% | -7.31% |
| COc1ccc(NC(=O)N2CCn3c(C)ccc3C2C(C)C)cc1OC (stereo unspecified) | 10.2% | 0% | -1.74% | 1.53% | 4.14% |
| CCC(C(=O)NCc1cccc(F)c1)n1ccc2cc(S(=O)(=O)N3CCCCC3)ccc21 (stereo unspecified) | 0.275% | 0% | -0.29% | -0.481% | 1.93% |
| CC(=O)Nc1c2n(c3ccccc13)CC(C)(C(=O)NC1CCCC1)N(Cc1ccc(C)cc1)C2=O (stereo unspecified) | -4.5% | 0.135% | 6.87% | 2.15% | 4.76% |
| CC(=O)c1c(C)nn(CCC(=O)N[C@@H]2CCOC[C@H]2OCCO)c1C | -0.58% | -0.491% | 1.04% | 1.3% | 4.46% |
| Nc1nonc1-c1nc2cnccc2n1C1CCCCC1 | – | -13.2% | – | -63.1% | -27% |
| CN1C(=O)c2cc(C(=O)NCCc3c[nH]c4ccccc34)nn2CC1(C)C(=O)NC1CCCCC1 (stereo unspecified) | 1.69% | 4.8% | -2.79% | 3.06% | 0.609% |
| COc1ccc(Br)cc1S(=O)(=O)NC(=O)/C=C/c1ccccc1Cc1ccc2ccccc2c1 | -31.2% | -9.37% | -4.28% | -20.4% | -0.386% |
| COc1cccc(C(=O)NC2CCN(c3cc(-c4cccs4)[nH]n3)CC2)c1OC | -4.38% | -5.02% | -1.85% | -3.9% | -2.49% |
| CC(=O)N[C@H]1[C@H](O[C@H]2CC[C@@]3(C)C(CC[C@]4(C)C3CC=C3[C@@H]5CC(C)(C)CC[C@]5(C(=O)OC5OCC(O)C(O)C5O)CC[C@]34C)C2(C)C)O[C@H](COC2OC(C)C(O)C(OC3OC(C)C(O)C(O)C3O)C2O)[C@@H](O)[C@@H]1O (stereo partly specified) | 0% | 19.2% | 7.7% | 3.29% | 9.01% |
